Test results reported in PubChem BioAssay AID1030 (National Center for Advancing Translational Sciences (NCATS), 2008).
Screen size: about 220,000 compounds; about 16,000 (7.3%) were called active. The inconclusive results got no clear call from the source; some entries with a clear call stand among them for comparison. Calls follow the shape of the dose curve; as a rule, active = well fitted inhibition curve with a large enough effect (not every such curve was filed as active); inconclusive = small, poorly fitted or top-dose-only effect, or another doubt; inactive = no such curve, though single readings can be large or run the other way. No potency is given beside an inconclusive call; the fits are too rough.

Target: Aldehyde dehydrogenase 1A1 (Homo sapiens) (UniProt P00352)
Assay: qHTS Assay for Inhibitors of Aldehyde Dehydrogenase 1 (ALDH1A1);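 as to activity, negative = inhibition: plate controls were no enzyme wells and a reference inhibitor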
Settings: Purified ALDH1A1, NADH fluorescence, propionaldehyde substrate; series mostly up to 75.3 µM; activity, negative = inhibition: at the top concentration
Potency is read from the fitted curve at half-maximal effect; tags tell the direction and shape of the fitted curve.

UniProt P00352, sequence (P00352 whole entry, looked up): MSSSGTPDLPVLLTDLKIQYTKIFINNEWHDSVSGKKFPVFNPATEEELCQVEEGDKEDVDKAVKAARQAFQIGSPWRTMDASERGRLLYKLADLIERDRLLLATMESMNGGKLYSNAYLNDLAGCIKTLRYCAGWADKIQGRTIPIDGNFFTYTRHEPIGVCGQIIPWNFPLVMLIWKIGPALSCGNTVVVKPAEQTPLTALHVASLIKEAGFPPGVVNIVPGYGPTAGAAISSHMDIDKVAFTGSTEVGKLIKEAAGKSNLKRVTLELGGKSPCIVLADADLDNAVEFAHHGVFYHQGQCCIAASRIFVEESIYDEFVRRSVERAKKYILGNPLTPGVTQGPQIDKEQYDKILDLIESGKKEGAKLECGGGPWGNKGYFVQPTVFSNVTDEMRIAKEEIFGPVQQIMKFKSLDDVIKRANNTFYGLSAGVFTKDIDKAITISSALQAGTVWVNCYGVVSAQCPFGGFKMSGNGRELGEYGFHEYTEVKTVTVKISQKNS

| SMILES | Potency | activity, negative = inhibition |
| --- | --- | --- |
| CC1COC2C(O1)N(S(C)(=O)=O)CCN2S(C)(=O)=O (stereo not drawn) | inconclusive [inhibitor, single point] |  |
| O=S(=O)(c1ccccc1)c1cnc(-c2ccccc2)nc1N1CCCCC1 | active: 12.6 µM |  |
| COc1cccc(CN2CCNC(=O)C2CC(=O)NC2Cc3ccccc3C2)c1 (stereo not drawn) | inconclusive [inhibitor, single point] |  |
| COc1ccccc1/C=C/C=N/NC(=O)c1ccncc1 |  | inactive: -8.63% |
| COC(=O)COc1ccc(S(=O)(=O)Nc2cc(OC)ccc2OC)cc1 |  | inactive: 5.49% |
| Cc1ccc(C(=O)O/N=C(\N)c2cccc([N+](=O)[O-])c2)cc1 | inconclusive [inhibitor, partial curve] |  |
| CC(C)(C)NC(=O)Cn1nnc(-c2ccc(S(C)(=O)=O)cc2)n1 | inconclusive [inhibitor, single point] |  |
| CCCNC(=O)CSc1nc2[nH]ncc2c(=O)[nH]1 |  | inactive: 2.87% |
| N#Cc1c2c(c(-c3ccccc3)[nH]c1=O)CCCC2 |  | inactive: 0.588% |
| COc1ccc(NC(=O)CCC(=O)OCc2ccc(Br)cc2)cc1 |  | inactive: -6.69% |
| CS(=O)(=O)N1CCN(c2ccc(C(=O)N3CCOCC3)cc2[N+](=O)[O-])CC1 |  | inactive: 11.2% |
| COc1ccc2cc(CN(CC3CCCO3)C(=S)Nc3ccccc3)c(=O)[nH]c2c1 (stereo not drawn) | active: 7.08 µM |  |
| Nc1nonc1-n1nnc(C(=O)O)c1-c1cccs1 |  | inactive: -3.76% |
| COc1cc(NC(=S)Nc2cccnc2)cc(OC)c1 | active: 31.6 µM |  |
| CN(CC(=O)Nc1ccc(N2CCOCC2)cc1)CC(=O)Nc1ccc(Cl)cc1[N+](=O)[O-] | inconclusive [inhibitor, single point] |  |
| Cc1cc(C)nc(SCCn2c(N3CC(C)OC(C)C3)nc3c2c(=O)n(C)c(=O)n3C)n1 (stereo not drawn) |  | inactive: 7.96% |
| COCCNc1nc(-n2nc(C)cc2C)nc2sc3c(c12)CCCC3 | inconclusive [inhibitor, partial curve] |  |
| CCCCC(=O)NC(=S)NNC(=O)c1ccc(OC)cc1 |  | inactive: -11.6% |
| O=c1[nH]snc1N1CCOCC1 |  | inactive: -3.71% |
| CCOC(=O)c1c(NC(=O)C2COc3ccccc3O2)sc2c1CCN(Cc1ccccc1)C2 (stereo not drawn) | inconclusive [inhibitor, single point] |  |
| O=C(COC(=O)c1ccc[nH]c1=O)NCCc1ccc(F)cc1 |  | inactive: 10.3% |
| O=c1oc2ccccc2c(O)c1/C=C1\C=Nc2ccccc21 | active: 12.6 µM |  |
| CCOC(=O)C1C(=O)C=C(c2ccc([N+](=O)[O-])cc2)CC1c1ccccc1 (stereo not drawn) | inconclusive [inhibitor, single point] |  |
